# Where “and” joins values, the source holds several entries; their conditions need not be identical. Identical values can stand only once. Hit rate of the full screen: of about 110,000 compounds, about 230 (0.21%) showed an effect of 50% or more. The list shows a part of the results.
# Target: DPAP1 (Plasmodium falciparum, UniProt Q8IIJ9)
# Assay: primary screen, percent inhibition; read by cleavage of a fluorogenic dipeptide substrate; higher = more effect of the substance
# Parameters: species or system P. falciparum D10 trophozoite lysates; single well
# 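Note: 30 min substrate incubation versus DMSO and 10 µM JCP410 controls.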
# Chain of DPAP1 (Q8IIJ9 whole entry, looked up): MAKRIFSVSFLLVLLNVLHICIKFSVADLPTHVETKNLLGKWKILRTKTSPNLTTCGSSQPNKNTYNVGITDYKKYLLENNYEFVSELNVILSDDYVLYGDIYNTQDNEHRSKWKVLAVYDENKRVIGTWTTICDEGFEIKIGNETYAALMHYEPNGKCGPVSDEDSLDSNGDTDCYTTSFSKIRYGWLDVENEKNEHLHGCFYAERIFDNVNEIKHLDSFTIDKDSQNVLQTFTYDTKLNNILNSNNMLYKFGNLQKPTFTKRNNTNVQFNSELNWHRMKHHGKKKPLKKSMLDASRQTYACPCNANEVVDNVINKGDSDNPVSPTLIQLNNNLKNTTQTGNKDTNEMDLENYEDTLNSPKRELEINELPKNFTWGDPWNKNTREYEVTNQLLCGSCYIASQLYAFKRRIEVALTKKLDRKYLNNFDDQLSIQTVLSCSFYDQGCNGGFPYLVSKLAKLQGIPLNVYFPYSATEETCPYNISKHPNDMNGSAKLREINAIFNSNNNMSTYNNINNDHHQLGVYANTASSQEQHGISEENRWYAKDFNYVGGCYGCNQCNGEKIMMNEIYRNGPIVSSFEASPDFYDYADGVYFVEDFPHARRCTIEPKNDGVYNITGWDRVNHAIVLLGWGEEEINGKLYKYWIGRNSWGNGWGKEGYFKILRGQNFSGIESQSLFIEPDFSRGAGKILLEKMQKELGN
row,Structure (SMILES),% Inhibition @ 10 uM
1,Cc1cc(/C=C2/SC(=O)NC2=O)c(C)n1-c1ccncc1,-0.891%
2,COc1ccc(CC(=O)N2N=C(c3ccncc3)CC2(O)C(F)(F)F)cc1OC (centres unmarked),1.92% and 2.08%
3,NC1=NC(=O)/C(=C/c2ccc(-c3cccc(C(=O)O)c3)o2)S1,1.13%
4,CCN(CC)C(=O)c1ccc(CS(=O)(=O)c2ccc(OC)cc2)o1,3.77%
5,CCc1ccc(OCC(=O)Nc2cccc(Cl)c2)cc1,7.67%
6,COc1ccc2nc(/N=C/c3nc(-c4ccc(Cl)cc4)oc3O)sc2c1,-2.27%
7,COc1ccc(C2C3=C(O)CC(C)(C)CC3=NC3=C2C(=O)CC(C)(C)C3)cc1 (centres unmarked),4.67%
8,Cc1ccc(C(=O)c2oc3ccccc3c2NC(=O)C(C)(C)C)cc1,3.93%
9,COc1ccc2c(c1)-c1nc(NC(=O)c3cccs3)sc1CC2,-1.27%
10,COc1ccc(-c2oc(=O)n(Cc3ccccc3)c2-c2ccc(OC)cc2)cc1,-4.73%
11,CCN(C(=O)CC(C)C)c1nc(-c2ccc(Br)cc2)cs1,-0.426%
12,N#CC1=C(N)N(c2ccc(F)cc2)C2=C(C(=O)CCC2)C1c1ccc(F)cc1 (centres unmarked),-1.37%
13,CCOc1cccc(/C=C2\S/C(=N/c3ccc(OC)cc3)N(C)C2=O)c1O,2.53%
14,O=S(=O)(c1cc(Cl)ccc1Br)N1CCCCC1,-5.2%
15,Cc1cccn2cc(-c3ccc(Cl)cc3)cc12,-0.736%
16,O=C(NCc1cccnc1)N1c2ccccc2Sc2ccccc21,1.57%
17,CCN(CC)S(=O)(=O)c1ccc(Cc2ccc(S(=O)(=O)N(CC)CC)cc2)cc1,8.97%
18,COc1ccc(CNC(=O)c2cc3c(s2)-c2ccccc2OC3)c(OC)c1,-6.91%
19,CCOc1cccc(C(=O)Nc2nc(-c3ccc(S(=O)(=O)N4CCCC4)cc3)cs2)c1,5.92%
20,O=C(CN1CCCC1)Nc1c2c(nc3ccccc13)N(c1ccccc1)CC2,0.144%
21,Oc1ncnc2c1sc1nc(N3CCOCC3)c3c(c12)CCCC3,2.38%
22,O=C(Cc1ccc(Br)cc1)N1CCC(Cc2ccccc2)CC1,-5.92%
23,Cc1ccc(-n2ncc3c(NCc4cccnc4)ncnc32)c(C)c1,-6.12%
24,CC1CCN(c2nc3nonc3nc2Nc2ccc(F)cc2)CC1,-2.03%
25,COc1cc(CN2CCN(C3CCCC3)CC2)cc(OC)c1OC,-3.83%
26,COc1cc(NS(=O)(=O)c2cc(Cl)ccc2Cl)c(OC)cc1Cl,-5.49%

row,Structure (SMILES),% Inhibition @ 10 uM
1,CCOC(=O)c1cc2c(ccc3[nH]c(C)c(C)c32)nc1C,2.62%
2,Cc1cc(C)c(C#N)c(SC2CCCCC2=O)n1 (centres unmarked),3.15%
3,Cc1nc(C23CC4CC(CC(C4)C2)C3)c(C)o1,-0.712%
4,Cc1ccc(-n2nc(C)c(/C=N/c3ccc(C(=O)N(C)C)cc3)c2O)cc1C,2.69%
5,COc1cccc2c(CO)ccc(OC)c12,-1.84%
6,CCCCCCn1c(=O)c2c(nc(NCc3ccco3)n2C)n(C)c1=O,-1.72%
7,CCOc1cc(/C=C(\C#N)C(N)=O)ccc1OCc1cc(=O)n2nc(CC)sc2n1,-0.495%
8,COc1ccc(S(=O)(=O)NC(C(=O)O)c2ccccc2)cc1 (centres unmarked),-3.41%
9,CC1(C)CC(=O)C2=C(C1)OC1=C(C(=O)CC(C)(C)C1)C2c1ccc(-c2ccc3c(c2)COC3=O)o1,-6.17%
10,CN(C)c1ccc(/C=C2/C(=O)NC(=O)N(c3ccccc3O)C2=O)cc1,-0.712%
11,OC1CCCN(C2CCc3ccccc3C2)C1 (centres unmarked),-5.44%
12,CCOc1cc(S(=O)(=O)NCc2ccccn2)ccc1Cl,-1.69%
13,Cc1ccc(CS(=O)Cc2ccc(C(=O)NCc3ccccc3C)o2)cc1 (centres unmarked),0.677%
14,Cc1cc(C)c2c(-n3cccc3)c(C(=O)N3CCN(C4CCCCC4)CC3)sc2n1,0.623%
15,Cc1ccccc1-n1c(SCc2cc(=O)n3ccccc3n2)nc2nnc(C)c-2c1N,-3.93%
16,O=C(CCNS(=O)(=O)c1ccc(Br)s1)NCc1ccc2c(c1)OCO2,-0.601%
17,COCCCn1c(=N)c(C(=O)NCc2ccco2)cc2c(=O)n3cc(C)ccc3nc21,1.97%
18,O=C(Cn1cc(C(=O)c2ccccc2)c2ccccc21)NCc1ccco1,3.25%
19,C=CCNC(=O)COc1ccc2c(c1)C(=O)CC(C)(C)O2,-5.2%
20,Cc1ccc(/C=C(\NC(=O)c2ccccc2)C(=O)NCCc2ccccn2)o1,1.35%
21,Cc1ccc(-c2nc(CS(=O)CC(=O)NCCCN3CCCCCC3)c(C)o2)cc1 (centres unmarked),-4.71%
22,COc1ccc(Nc2cc(C)c3ccccc3n2)cc1,-1.59%
23,CCn1c(C)c(C)c2cc(C(=O)NCC3CCCO3)ccc21 (centres unmarked),0.224%
24,Cc1cc(C)nc(NC(=O)c2ccc(C(C)(C)C)cc2)n1,-4.59%
25,CC(C)(C)c1ccccc1NC(=O)NC12CC3CC(CC(C3)C1)C2,-1.57%
26,CCCCCn1c(Br)nc2c1c(=O)[nH]c(=O)n2C,4.41%

row,Structure (SMILES),% Inhibition @ 10 uM
1,COc1ccc2[nH]cc(CCNS(=O)(=O)c3ccc(C)cc3)c2c1,1.7%
2,CCCn1c2ccccc2c2cnn(CC(=O)NCC3CCCO3)c(=O)c21 (centres unmarked),-1.96%
3,COC(=O)c1nc2n(n1)C(c1cc(OC)c(OC)c(OC)c1)C=C(c1cccs1)N2 (centres unmarked),-5.19%
4,COc1cc(NC(=O)CS(=O)(=O)c2ccc(C(F)(F)F)cc2Cl)c(OC)cc1Cl,-1.28%
5,Cc1ccc2c(c1)c1c(c(=O)n(Cc3ccccc3)c(=O)n1CC(=O)Nc1cc(C)[nH]n1)n2C,-1.01%
6,CN(C)/C=C1/C(=O)NC(=O)N(c2cccc(Cl)c2)C1=O,-4.21%
7,COc1cccc(C2C(C#N)=C(N)Oc3nc(SCc4ccccc4Cl)nc(N)c32)c1OC (centres unmarked),13.7%
8,Cc1ccc(C)c(NC(=O)Cn2nc(C(F)(F)F)cc2C2CC2)c1,-3.71%
9,CSc1nnc(NC(=O)Cc2coc3c(C)c(C)ccc23)s1,-6.04%
10,c1ccc(CN2CCC(NCCN3CCOCC3)CC2)cc1,-3.6%
11,COc1ccc2nc(N3C(=O)CC(Cc4ccc(Cl)cc4)C3=O)sc2c1 (centres unmarked),-3.28%
12,C=CCN1C(=O)S/C(=C/c2ccc(OC)c(OC)c2OC)C1=O,3.93%
13,Cc1nn(C(=O)c2ccncc2)c(C)c1Sc1ccc(Cl)cc1,-1.6%
14,CCN(CC)CCCOc1ccccc1Cl,6.08%
15,CCN(CC)CCN(CC)Cc1ccc(F)cc1F,-5.44%
16,CCN(Cc1ccncc1)C(=S)NCCc1ccccc1,-4.35%
17,CC(NC(=O)C1CCCN1S(=O)(=O)c1cccc2cccnc12)c1ccccc1 (centres unmarked),-4.21%
18,Cc1cc(C)n(-c2nncc(-c3ccccc3)n2)n1,-2.97%
19,Nc1ccc(C23CC4CC(CC(O)(C4)C2)C3)cc1,-0.637%
20,CCOC(=O)C1=C(CNC2CCCCC2)NC(=O)NC1c1ccc(C)cc1 (centres unmarked),-1.03%
21,CC(C)(C)c1cn(-c2ccc(Cl)cc2)c(S)n1,-4.01%
22,COc1ccc2c(c1)C(=O)Cc1ccccc1S2,-1.91%
23,Cc1oc(-c2ccccc2F)nc1CS(=O)CC(=O)NCCCOC(C)C (centres unmarked),-2.85%
24,CCn1ncc(Cl)c1C(=O)Nc1ccccc1C(F)(F)F,5.59%
25,CCc1ccc(CNC(=O)Cn2nc(C)c3c(C)n(-c4ccccc4)nc3c2=O)cc1,-6.53%
26,Cc1ccc2c(c1)C(O)(CC(=O)c1ccccn1)C(=O)N2 (centres unmarked),-6.36%

row,Structure (SMILES),% Inhibition @ 10 uM
1,CCCCSc1ccc(NC2=NS(=O)(=O)c3ccccc32)cc1,-3.39%
2,CCOc1cc2c(cc1OC)C(c1ccc3c(c1)OCO3)NCC2 (centres unmarked),4.3%
3,O=C(NCCc1ccc(Cl)cc1)c1ccc(CS(=O)(=O)c2ccc(Br)cc2)o1,-1.28%
4,Cc1ccc(C2C3=C(O)CC(c4ccccc4)CC3=Nc3nc(C(F)(F)F)nn32)cc1 (centres unmarked),-1.72%
5,CCOc1ccc(C(=O)N2CCC(c3nc(O)c4nnn(Cc5ccc(C)cc5)c4n3)CC2)cc1,14.8%
6,O=C(Cn1c(=O)sc2ccccc21)OCCF,5.06%
7,CC(=O)CN1CCn2c3c(c4cc(C)ccc42)CCCC31 (centres unmarked),5.16%
8,COCCCNC(C)Cc1ccc(F)cc1 (centres unmarked),-3.15%
9,COc1ccc(C2Nc3ccccc3N=C3CC(C)(C)CC(O)=C32)cc1 (centres unmarked),2.26%
10,FC(F)(F)c1nnc2sc(Cc3ccccc3)nn12,2.29%
11,CCCCNC(=O)c1noc2c1CCc1cc(OC)ccc1-2,-5.09%
12,CCOC(=O)C(O)(c1ccc(NC(C)C)cc1)C(F)(F)F (centres unmarked),1.57%
13,O=C1CCCN1CCSC(=S)N1CCCC1,6.56%
14,CCOCCCNC(=O)Cn1c2ccccc2c2cnnc(O)c21,-3.79%
15,Cc1ccc(-c2nc(O)c3ccccc3n2)cc1,2.01%
16,CCc1ccc(OCC(=O)NCc2ccc3c(c2)OCO3)cc1,-3.04%
17,Cc1ccc(NC(=O)CC2SC(Nc3ccccc3)=NC2=O)c(C)c1 (centres unmarked),2.43%
18,COC(=O)C1=C(C)N=c2s/c(=C\c3ccc(C)cc3)c(=O)n2C1/C=C/c1ccccc1 (centres unmarked),-7.06%
19,Cc1cc(C)nc(N2CCN(c3cc(C)c(C#N)c4nc5ccccc5n34)CC2)n1,-1.33%
20,O=C(NCc1nc(-c2ccccc2)no1)c1ccc2c(c1)OCO2,-2.99%
21,CCOC(=O)c1sc(C)c2c(O)nnnc12,-6%
22,CC(=O)N1c2ccccc2N=C2CC(c3ccc(Cl)c(Cl)c3)CC(O)=C2C1c1cccnc1 (centres unmarked),-0.759%
23,Cc1cc(C(=O)N(C)C)sc1-c1ccccc1,0.5%
